Results published in the supplement of paper PMC12217912.
The other results are listed elsewhere or left out. The full chains were built here from the parent and the listed change. Inactive controls read about 0.05.

B1: TEV protease; numbered along this chain (parent)
chain: MGESLFKGPRDYNPISSSICHLTNESDGHTTSLYGIGFGPFIITNKHLFRRNNGTLVVQSLHGVFKVKDTTTLQQHLVDGRDMIIIRMPKDFPPFPQKLKFREPQREERICLVTTNFQTKSMSSMVSDTSCTFPSGDGIFWKHWIQTKDGQCGSPLVSTRDGFIVGIHSASNFTNTNNYFTSVPKNFMELLTNQEAQQWVSGWRLNADSVLWGGHKVFMVKPEEPFQPVKEATQL

Variants of: B1
Experiment: raw area under fraction-flipped curve 0-4 h after induction (AUC4h, not background-subtracted), DNA-recorder readout of cleavage of the substrate (dimensionless); higher = more cleavage of the substrate by the protease variant
Details: temperature: 34 °C; time window: 0-4 h after rhamnose induction
Description: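 In vivo DNA recorder in E. coli TOP10(DE3) ΔrhaA at 34 °C. Each TEVp single-site mutant (parent TEVp 0) is paired with a single-site variant of the 7-mer TEVs (canonical ENLYFQ|S). The substrate sits between flexible linkers in a Bxb1-sfGFP-TEVs-SsrA fusion, so cleavage stabilises Bxb1 and speeds flipping of a recombination array, read by NGS. The value is the raw area under the fraction-flipped curve over 0-4 h after rhamnose induction (AUC4h), with ≥20 reads per time point. It is not background-subtracted; inactive controls average about 0.047.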
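Further: Bxb1 expression induced with 0.2% (w/v) L-rhamnose at OD600 near 0.5, cultures sampled hourly, flipped fraction per protease–substrate barcode pair counted by paired-end Illumina sequencing.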

Variant	area with substrate EALYFQS	area with substrate EELYFQS	area with substrate EFLYFQS	area with substrate EGLYFQS	area with substrate EILYFQS	area with substrate ELLYFQS	area with substrate EMLYFQS	area with substrate EPLYFQS	area with substrate EQLYFQS	area with substrate ERLYFQS	area with substrate ESLYFQS	area with substrate EVLYFQS	area with substrate EWLYFQS	area with substrate ECLYFQS	area with substrate EKLYFQS	area with substrate EYLYFQS	area with substrate EDLYFQS	area with substrate EHLYFQS	area with substrate ETLYFQS
MGESMFKGPRDYNPISSSICHLTNESDGHTTSLYGIGFGPFIITNKHLFRRNNGTLVVQSLHGVFKVKDTTTLQQHLVDGRDMIIIRMPKDFPPFPQKLKFREPQREERICLVTTNFQTKSMSSMVSDTSCTFPSGDGIFWKHWIQTKDGQCGSPLVSTRDGFIVGIHSASNFTNTNNYFTSVPKNFMELLTNQEAQQWVSGWRLNADSVLWGGHKVFMVKPEEPFQPVKEATQL [L5M]	0.153	0.18	0.167	0.144	0.115	0.119	0.179	0.161	0.159	0.14	0.131	0.113	0.121						
MGESRFKGPRDYNPISSSICHLTNESDGHTTSLYGIGFGPFIITNKHLFRRNNGTLVVQSLHGVFKVKDTTTLQQHLVDGRDMIIIRMPKDFPPFPQKLKFREPQREERICLVTTNFQTKSMSSMVSDTSCTFPSGDGIFWKHWIQTKDGQCGSPLVSTRDGFIVGIHSASNFTNTNNYFTSVPKNFMELLTNQEAQQWVSGWRLNADSVLWGGHKVFMVKPEEPFQPVKEATQL [L5R]	0.151						0.13				0.117	0.111		0.143					
MGESDFKGPRDYNPISSSICHLTNESDGHTTSLYGIGFGPFIITNKHLFRRNNGTLVVQSLHGVFKVKDTTTLQQHLVDGRDMIIIRMPKDFPPFPQKLKFREPQREERICLVTTNFQTKSMSSMVSDTSCTFPSGDGIFWKHWIQTKDGQCGSPLVSTRDGFIVGIHSASNFTNTNNYFTSVPKNFMELLTNQEAQQWVSGWRLNADSVLWGGHKVFMVKPEEPFQPVKEATQL [L5D]	0.13		0.131			0.0753	0.111		0.133		0.112	0.0765		0.121	0.103	0.124			
MGESLFKGPRDYCPISSSICHLTNESDGHTTSLYGIGFGPFIITNKHLFRRNNGTLVVQSLHGVFKVKDTTTLQQHLVDGRDMIIIRMPKDFPPFPQKLKFREPQREERICLVTTNFQTKSMSSMVSDTSCTFPSGDGIFWKHWIQTKDGQCGSPLVSTRDGFIVGIHSASNFTNTNNYFTSVPKNFMELLTNQEAQQWVSGWRLNADSVLWGGHKVFMVKPEEPFQPVKEATQL [N13C]	0.222	0.114	0.0939	0.113	0.107	0.122	0.154	0.122	0.139	0.108	0.103	0.0933	0.107	0.097	0.112	0.103	0.118	0.0916	0.117
MGESLFKGPRDYQPISSSICHLTNESDGHTTSLYGIGFGPFIITNKHLFRRNNGTLVVQSLHGVFKVKDTTTLQQHLVDGRDMIIIRMPKDFPPFPQKLKFREPQREERICLVTTNFQTKSMSSMVSDTSCTFPSGDGIFWKHWIQTKDGQCGSPLVSTRDGFIVGIHSASNFTNTNNYFTSVPKNFMELLTNQEAQQWVSGWRLNADSVLWGGHKVFMVKPEEPFQPVKEATQL [N13Q]	0.115	0.148	0.125	0.119	0.115		0.117	0.151	0.128	0.0914	0.119	0.0991	0.0965	0.108	0.109	0.11	0.13	0.122	0.107
MGELLFKGPRDYNPISSSICHLTNESDGHTTSLYGIGFGPFIITNKHLFRRNNGTLVVQSLHGVFKVKDTTTLQQHLVDGRDMIIIRMPKDFPPFPQKLKFREPQREERICLVTTNFQTKSMSSMVSDTSCTFPSGDGIFWKHWIQTKDGQCGSPLVSTRDGFIVGIHSASNFTNTNNYFTSVPKNFMELLTNQEAQQWVSGWRLNADSVLWGGHKVFMVKPEEPFQPVKEATQL [S4L]	0.0626	0.0952	0.0793	0.0815	0.0786	0.0668	0.097	0.0796	0.0817	0.0752	0.0816	0.0626	0.0779	0.071	0.0827		0.0667	0.0716	0.114
MGESLFKCPRDYNPISSSICHLTNESDGHTTSLYGIGFGPFIITNKHLFRRNNGTLVVQSLHGVFKVKDTTTLQQHLVDGRDMIIIRMPKDFPPFPQKLKFREPQREERICLVTTNFQTKSMSSMVSDTSCTFPSGDGIFWKHWIQTKDGQCGSPLVSTRDGFIVGIHSASNFTNTNNYFTSVPKNFMELLTNQEAQQWVSGWRLNADSVLWGGHKVFMVKPEEPFQPVKEATQL [G8C]	0.0981																		
MGESLFKMPRDYNPISSSICHLTNESDGHTTSLYGIGFGPFIITNKHLFRRNNGTLVVQSLHGVFKVKDTTTLQQHLVDGRDMIIIRMPKDFPPFPQKLKFREPQREERICLVTTNFQTKSMSSMVSDTSCTFPSGDGIFWKHWIQTKDGQCGSPLVSTRDGFIVGIHSASNFTNTNNYFTSVPKNFMELLTNQEAQQWVSGWRLNADSVLWGGHKVFMVKPEEPFQPVKEATQL [G8M]	0.109	0.124			0.0879		0.0876		0.115	0.105	0.107		0.0763	0.124	0.0608				0.102
MGESLFKNPRDYNPISSSICHLTNESDGHTTSLYGIGFGPFIITNKHLFRRNNGTLVVQSLHGVFKVKDTTTLQQHLVDGRDMIIIRMPKDFPPFPQKLKFREPQREERICLVTTNFQTKSMSSMVSDTSCTFPSGDGIFWKHWIQTKDGQCGSPLVSTRDGFIVGIHSASNFTNTNNYFTSVPKNFMELLTNQEAQQWVSGWRLNADSVLWGGHKVFMVKPEEPFQPVKEATQL [G8N]	0.208		0.114	0.113			0.12		0.123									0.102	
MGESLFKGQRDYNPISSSICHLTNESDGHTTSLYGIGFGPFIITNKHLFRRNNGTLVVQSLHGVFKVKDTTTLQQHLVDGRDMIIIRMPKDFPPFPQKLKFREPQREERICLVTTNFQTKSMSSMVSDTSCTFPSGDGIFWKHWIQTKDGQCGSPLVSTRDGFIVGIHSASNFTNTNNYFTSVPKNFMELLTNQEAQQWVSGWRLNADSVLWGGHKVFMVKPEEPFQPVKEATQL [P9Q]	0.14	0.125	0.0857	0.0935	0.107	0.0931		0.147	0.0048	0.112	0.1			0.109	0.119	0.135		0.129	0.127
